From the supplement of paper PMC10670038
Where a name gives a salt, the structure may show the parent alone. ± gives the standard deviation of the averaged measurements. Whole data set: some 2,000 compounds, median “relative cell viability vs DMSO, compound alone” near 1.1, cut for the lowest 2% near 0.29. The list shows a part of the results.

What follows are molecules tested on TE10 (assay: relative cell viability vs DMSO, compound alone (fraction); TE10 is an esophageal squamous carcinoma line; higher = less cytotoxic). Settings: 2 µM; 48 h.
Method: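 TE10 ESCC cells (1,000/well, 384-well plates) were treated with Selleck bioactive library compounds at 2 uM alone for 48 h. Viability was read by CellTiter-Glo and expressed relative to DMSO wells. Two technical replicates (A, B).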

SMILES	relative cell viability
CN(C)CCCCC(=O)Nc1ccc(NC(=S)NC(=O)c2ccc(C(C)(C)C)cc2)cc1 [Tenovin-6]	0.601 ± 0.049
C=C(c1ccc(C(=O)O)cc1)c1cc2c(cc1C)C(C)(C)CCC2(C)C [Bexarotene]	1.178 ± 0.0021
CC[N+](CC)(CC)CCOc1cccc(OCC[N+](CC)(CC)CC)c1OCC[N+](CC)(CC)CC [Gallamine Triethiodide]	1.14 ± 0.035
O=C(O)c1cc(I)ccc1NC(=O)[C@H](Cc1ccccc1)NCc1ccccc1	1.07 ± 0.055
O=c1c(O)c(-c2ccc(O)c(O)c2)oc2cc(O)cc(O)c12 [Quercetin Dihydrate]	1.07 ± 0.034
O=c1c(O)c(-c2ccc(O)c(O)c2)oc2cc(O)cc(O)c12 [Quercetin]	1.12 ± 0.049
Cc1cnc(C(=O)O)c[n+]1[O-] [Acipimox]	0.954 ± 0.057
O=C(Nc1ccc([N+](=O)[O-])cc1O)Nc1ccccc1Br	0.922 ± 0.041
O=C(c1cncc(Br)c1)N1CCC(N2CCCC2)CC1	1.132 ± 0.01
COc1ccc(CN2CCN(C(c3ccc(F)cc3)c3ccc(F)cc3)CC2)c(OC)c1OC [Lomerizine HCl]	1.01 ± 0.051
CC(C)Cc1ccc(C(C)C(=O)O)cc1 (centres undefined) [Ibuprofen]	1.15 ± 0.068
CCN1CCN(Cc2ccc(Nc3ncc(F)c(-c4cc(F)c5nc(C)n(C(C)C)c5c4)n3)nc2)CC1	1.15 ± 0.086
COCCc1ccc(OCC(O)CNC(C)C)cc1 (centres undefined) [Metoprolol Tartrate]	1.12 ± 0.015
CN1CCC(NC(=O)c2cc(-c3c(O)cc(O)cc3Oc3ccc([N+](=O)[O-])cc3)on2)CC1	0.605 ± 0.008
Cc1cc(-c2ncc(CC(=O)Nc3ccc(-c4cnccn4)cn3)cc2C)ccn1	0.913 ± 0.045
Cc1cnc(C(=O)NCCc2ccc(S(=O)(=O)NC(=O)NC3CCCCC3)cc2)cn1 [Glipizide]	1.1 ± 0.024
COC(=O)CC(NC(=O)C(C)NC(=O)C(NC(=O)OCc1ccccc1)C(C)C)C(=O)CF (centres undefined)	1.129 ± 0.0097
CCN1C(=CC(C)=O)Sc2ccc(OC)cc21	1.12 ± 0.015
O=C1[C@H](CC[C@H](O)c2ccc(F)cc2)[C@@H](c2ccc(O)cc2)N1c1ccc(F)cc1 [Ezetimibe]	1.05 ± 0.0093
Nc1ncnc2c1C(=O)N(c1ccc([C@H]3CC[C@H](CC(=O)O)CC3)cc1)CCO2	1.14 ± 0.09

SMILES	relative cell viability
CCN(CC)CCOc1ccc(C(=C(Cl)c2ccccc2)c2ccccc2)cc1 [Clomifene citrate]	1.13 ± 0.051
COc1ccc2cc(-c3nc(-c4ccc([S+](C)[O-])cc4)[nH]c3-c3ccncc3)ccc2c1 (centres undefined) [Tie2 kinase inhibitor]	1.07 ± 0.013
CCCCCOC(=O)Nc1nc(=O)n([C@@H]2O[C@H](C)[C@@H](O)[C@H]2O)cc1F [Capecitabine]	1.13 ± 0.014
CCCCC(=O)N(Cc1ccc(-c2ccccc2-c2nn[nH]n2)cc1)C(C(=O)O)C(C)C.CCOC(=O)C(C)CC(Cc1ccc(-c2ccccc2)cc1)NC(=O)CCC(=O)O (centres undefined)	1.05 ± 0.051
CCCCNc1ccc(C(=O)OCCN(C)C)cc1 [Tetracaine HCl]	1.14 ± 0.024
COc1ncc(-c2ccc3nccc(-c4ccnnc4)c3c2)cc1NS(=O)(=O)c1ccc(F)cc1F	0.514 ± 0.019
COc1cc2ncnc(Oc3ccc(CC(=O)Nc4cnn(C(C)C)c4)cc3)c2cc1OC	1.11 ± 0.017
CN1CCC(=C2c3ccccc3CCc3sccc32)CC1 [Pizotifen Malate]	1.05 ± 0.028
CNCc1cc(-c2ccccc2F)n(S(=O)(=O)c2cccnc2)c1	1.15 ± 0.06
Cc1ccccc1C(OCCN(C)C)c1ccccc1 (centres undefined) [Orphenadrine Citrate]	1.051 ± 0.006
Cc1nn(C)c2c1C(c1ccc(C(F)(F)F)cc1)C(C#N)=C(N)O2 (centres undefined)	0.91196 ± 0.00056
O=C1CCc2ccc(OCCCCN3CCN(c4cccc(Cl)c4Cl)CC3)cc2N1 [Aripiprazole]	1.07 ± 0.035
COc1c2ccoc2cc2oc(=O)ccc12 [Bergapten]	1.0751 ± 0.00059
CCCCCCCCCCCC1=C(O)C(=O)C=C(O)C1=O [Embelin]	0.947 ± 0.17
Oc1cc(O)c(Cl)cn1 [Gimeracil]	0.991 ± 0.088
O=C1Cc2c([nH]c3ccc(Br)cc23)-c2ncccc2N1 [1-Azakenpaullone]	1.27 ± 0.018
COC(=O)C1=C(C)NC(C)=C(C(=O)OCC(C)C)C1c1ccccc1[N+](=O)[O-] (centres undefined) [Nisoldipine]	0.99 ± 0.056
CC1(C)CNc2cc(NC(=O)c3cccnc3NCc3ccncc3)ccc21 [Motesanib Diphosphate (AMG-706)]	1.2 ± 0.025
Cn1cc(-c2[nH]c3cc(NC(=O)[C@H](N)C4CCCCC4)cc4c3c2C=NNC4=O)cn1	1.05 ± 0.075
